# The source gives no read counts; variants with many changes may rest on few reads.
# B1: OR4K15 (parent)
# chain: GUUAACGGUCAUAGGCCAUGGAAACUAGGAGCACCAUUUCGCUGCCAGUGAAGAAAUGAACAAAGAAAAUCUGGGCCAGGCAGGCAUCAAAAGAAAUAGUCUUGCGCUCAACCAGAAAGUCUGUAAUCAUUUUAAGGGUA
# Variants of: B1
# Assay: self-cleavage, relative activity (ratio to wild type); higher = more cleavage; in vitro, sequencing; the parent is a self-cleaving ribozyme
row,Variant,self-cleavage
1,GUUAACGGUCAUAGGCCAUGGAAACUAGGAGCACCACUUCGCUGCCAGUGAAGAAAUGAACAAAGAAAAUCUGGGCCAGGCAGGCACCAAAGGAAAUAGUCUUGCGCUCAACCAGAAAGUCUGUAAUCAUUUUAAGGGUA [U37C U87C A92G],1.67
2,GUUAACGGUCAUAGGCCAUGGAAACUAGGAGCACCACUUCGCUGCCAGUGAAGAAAAGAACGAAGAAAAUCUGGGCCAGGCAGGCAUCAAAAGAAAUAGUCUUGCGCUCAACCAGAAAAUCCGUAAUCAUUUUAAGGGUA [U37C U57A A62G G119A U122C],0.73
3,GUUAACGGUCAUAGGCCAUGGAAACUAGGAGCACCACUUCGCUGCCAGUGAAGAAAUGAACAAAGAAAACCUGGGCCAGGCAGGCAUCAAAAGAAAUAGUCUCGCGCUCAACCAGAAAGUCUGUAAUCUUGUUAAGGGUA [U37C U70C U103C A129U U131G],0.14
4,GUUAACGGUCAUAGGCCAUGGAAACUAGGAGCACCAUAUCGCUGCCAGUGGAGAAAUGAACAAAGAAAAUCUGGGCCAGGCAGGCAUCAAAAGAAAUAGUAUUGCGCUCAACCAGAAAGUCUGUAAUAAUUUUAAGGGUA [U38A A51G C101A C128A],0.07
5,GUUAACGGUCAUAGGCCAUGGAAACUAGGAGCACCACUUCGCUGCCAGUGAAGAAAUGAACAAAGAAAAUCUGGGCCAGGCAGGCAUCAAAAGAAAUAGUCUCGCGCUCAACCAGAAAGUCGGUAAUCAUUUUAAGGGUA [U37C U103C U122G],1.46
6,GUUAACGGUCAUAGGCCAUGGAAACUAGGAGCACCACUUCGCUGCCAGCGAAGAAAUGAACAAAGAAAAUCUGGGCCAGGCAGGCAUCAAAAGAAAUAGUCUUGCGCUCAACCAGAAGGUCUGUAGUCAUUUUAAGGGCA [U37C U49C A118G A126G U139C],1.07
7,GUUAACGGUCAUAGGCCAUGGAAACUAGGAGCACCACUUCGCUGCCAGUGAAGAAAUGAACAAAGAAAACCUGGGCCAGGCAGGCAUCAAAAGAAAUAGUCUUGCGCUCAACCAGAAAGUCUGUAAUCAUUUUAAGGGCA [U37C U70C U139C],0.96
8,GUUAACGGUCAUAGGCCAUGGAAACUAGGAGCACCACUUCGCUGCCAGUGAAGAAAUGAACAAAGAAAAUCUGGGCCAGGCAGGCAUCAAAAGAAAUAGCCUUGCGCUCAACCAGAAAGUCUGUAAUCGUUUUAAGGGUA [U37C U100C A129G],2.38
9,GUUAACGGUCAUAGGCCAUGGAAACUAGGAGCACCACUUCGCUGCCAGCGAAGAAAUGAACAAAGAAAAUCUGGGCCAGGCAGGCAUCAAAAGAAAUAGUCUUGCGCACAACCAGAAAGUCUGUAGUCAUCUUAAGGUUA [U37C U49C U108A A126G U131C G138U],0
10,GUUAACGGUCAUAGGCCAUGGAAACUAGGAGCACCACUUCGCUGCCAGCGAAGAAAUGAGCAAAGAAAAUCUGGGCCAGGCAGGCAUCAAAAGAGAUAGUCAUGCGCUCAACCAGAAAGUCUGUUAUCGUUUUAAGGGUA [U37C U49C A60G A95G U102A A125U A129G],0.61
11,GUUAACGGUCAUAGGCCAUGGAAACUAGGAGCACCACUUCGCUGCCAGUGAAGAAAUGAACAAAGAAAAUCUGGGCCAGGCAGGCACCAAAAGAAGUAGCCUUGCGCUCAACCAGAAAGUCUGUAAUCAUUUUAAGGGUA [U37C U87C A96G U100C],1.18
12,GUUAACGGUCAUAGGCCAUGGAAACUAGGAGCACCAGUUCGCCGUCAGUGAAGAAAUGAACAAAGAAAAUCUGGGCCAGGCAGGCAUCAAAAGAAAUAGUCUUGCGCUCAACCAGAAGGUCUGUAAUCAUUUUAAGGGUA [U37G U43C C45U A118G],0.85
13,GUUAACGGUCAUAGGCCAUGGAAACUAGGAGCACCAGCUCGCUGCCAGUGAAGAAAUGAACAAAGAAAAUCUGGGCCAGGCAGGCAUCAAAAGAAAUAGUCUUGCGCUCAACCAGAAAGUCUGUGAUCAUUUUGAGGGUA [U37G U38C A125G A134G],0.86
14,GUUAACGGUCAUAGGCCAUGGAAACUAGGAGCACCACUUCGCUGCCAGCGAAGAAAUGAACAAAGGAAAUCUGGGCUAGGCAGGCAUCAAAAGAAAUAGUCUUGCGCUCAACCAGAAAGUCUGUAAUCGUUUUAAGGGUA [U37C U49C A66G C77U A129G],1.8
15,GUUAACGGUCAUAGGCCAUGGAAACUAGGAGCACCACUUCGCUGCCAGUGAAGAAAUGAACAAAGAAAAUCUGGGCCAGGCAGGCACCAAAAGAAGUAGUCUUGCGCUCAACCAGAAAGUCUGUAGUCAUUUUAAGGGUA [U37C U87C A96G A126G],1.99
16,GUUAACGGUCAUAGGCCAUGGAAACUAGGAGCACCAUAUCGCUGCCAGUGAGGAGAUGAACAAAGAAACUCUGGGCCAGGCAGGCACCAAAAGAAAUAGUCUUGCGCUCAACCAGAAAGCCUGUAAUCAUUUUAAGGGUA [U38A A52G A55G A69C U87C U120C],0.24
17,GUUAACGGUCAUAGGCCAUGGAAACUAGGAGCACCACUUCGCUGCCAGCGAAGAAAUGAACAAAGAAAAUCUGGGCCAGGCAGGCAUCGAAAGAAAUAGUCUUGCGCUCAACCAGAAAGUCUGUAAUCAUUUUAAGGGUA [U37C U49C A89G],1.12
18,GUUAACGGUCAUAGGCCAUGGAAACUAGGAGCACCACUUCGCUGCCAGCGAAGAAAUGAACAAAGAAAAUCUGGGCCAGGCAGGCACCAAAAGAAGUAGUCUUGCGCUCAACCAGAAAGUCUGUAAUCAUUUUAAGGGUA [U37C U49C U87C A96G],1.69
19,GUUAACGGUCAUAGGCCAUGGAAACUAGGAGCACCACUUCGCUGCCAGGGAAGAAAUGAACAAAGAAGAUCUGGGCCAGGCAGGCAUCAAAAGAAAUAGUCUUGCGCUCAACCAGGAAGUCUGUAAUCAUUUUAAGGGUA [U37C U49G A68G A116G],0.81
20,GUUAACGGUCAUAGGCCAUGGAAACUAGGAGCACCAGUUCGCUGCCAGUGAGGAAAUGAACAAAGAAAAUCUGGGCCAGGCGGGCAUCAAAAGAAAUAGUCUUGCGCUCAACCAGAAAGUCUGUAAUCAUUUUAAGGGUA [U37G A52G A82G],0.14
